# The source gives no read counts; variants with many changes may rest on few reads.
# B1: LINE1-mini (parent)
# chain: GGCAGAGCUCAACACAGCGUGGCAAAGUGGCUGUGGCUAGACUGCC
# Variants of: B1
# Assay: self-cleavage, relative activity (ratio to wild type); higher = more cleavage; in vitro, sequencing; the parent is a self-cleaving ribozyme
row,Variant,self-cleavage
1,AGCAGAGCUCAACACAGCGGGGCAAAGUGGCUGUGGUUAGACUGCC,0.02
2,AGCAGAGCUCAACACAGCGGUGGAAAGUGGAAGUGGCUAGACAGCU,0.01
3,AGCAGAGCUCAACACAGCGUGGCAAAGGGGCUGUGGCUUGACUGCC,1.47
4,AGCAGAGCUCAACACAGCGUGGCAAAGGGGCUGUGGCUAGCCUGCC,0.05
5,AGCAGAGCUCAACACAGCGUGGCAAAGGGGCUGUGGCUAGACUGCU,2.9
6,AGCAGAGCUCAACACAGCGUGGCAAAGGUGCUGUGCCUAGACUGCC,0.11
7,AGCAGAGCUCAACACAGCGUGGCAAAGGGGCUGUAGCUAGACUGCC,0.26
8,AGCAGAGCUCAACACAGCGUGGCAAAGGGGCUGCGGCUAGACUGUC,0.04
9,AGCAGAGCUCAACACAGCGUGGCAAAGUGGCGGUGGCUAGAUUGCC,0.08
10,AGCAGAGCUCAACACAGCGUGGCAAAGUGGCGGUGGCUAGACUGCA,0.14
11,AGCAGAGCUCAACACAGCGUGGCAAAGUGGCUGAGGAUAUACUGCC,0.03
12,AGCAGAGCUCAACACAGCGUGGCAAAGUGGCUGAGCCUAGACUGCC,0.05
13,AGCAGAGCUCAACACAGCGUGGCAAAGUGGCUGCGGAUAGACUGUC,0.02
14,AGCAGAGCUCAACACAGCGUGGCAAAGUGGCUGCGGCUAGACUCGC,0.03
15,AGCAGAGCUCAACACAGCGUGGCAAAGUGGCUGUGGCAAGAUUGCC,0.1
16,AGCAGAGCUCAACACAGCGUGGCAAAGUGGCUGUGGCCAGACUUCC,0.1
17,CGCCGAGCUCAACACAGCGUGGCAAUAUGGCUGAGGCUAGACUGCC,0.04
18,CGCCGAGCUCAAAACAGCGUGGCAAAGUGGCUGUGGCUAGACUGCC,0.03
19,CGCCGAGCUCAAUACAGCGUGGUAAAGUGGCUGUGGCUUGACUGCC,0.02
20,CGCCGAGCUCAACACAGAGUGGCAAAGUGGCUGUAGCUAGACUGCC,0.02
21,CGCCGAACUCAACACAGCGUGGCAAAGUGGUUGUGGCUAGACUGCC,0
22,CGCCGAGCUCAACACAGCGGAGCAAAGUGGCUGUGGCUAAACUGCC,0.03
23,CGCGGAGCUCGACACAGCGUGGCAAAGUGGCUGUGGCUAGACUGCC,0.01

row,Variant,self-cleavage
1,CGCGGAGCUCACCACAGCGUGGCAAAGUGGCUGUGGCUAGACUGCC,0.01
2,CGCGGAGCUUAACACAGCGUGCCAAAGUGUCUAUGGCUAGACUGCC,0.02
3,CGCGGAGCUCAACAGACGGUGGCAACGUGUCUGUGGCUAGACAGCC,0
4,CGCGGAGCUCAACAUAGCGUGGCAAAGUGGCUGUGGAUAAACUGCC,0.28
5,CGCGGAGCUCAACACAGCGUGGCAAAGUGGCUGUGACUAGACUGCC,0.1
6,CGCGGAGCGCAACACAGCGUGGCAAAGUGGCUGUGGCUCGGCUGCC,0
7,CGCUGAGCUCAGCACAGCGUGGCUAAGUGGCUGUGGCUAGACUGCC,0.01
8,CGCUGAGCUCAACACCGCGUGGCAAAGUGGCAGUGGCUAGACUGCC,0.03
9,CGCUGAGCUCAACACAGCGUGGCCAAGUGGCAGUGGCUCGACUGCC,0.02
10,CGCUGAGAUCAACACAGAGUGGCAAAGUGGCUGUGGCUAGAAUGCC,0.06
11,CGCUGAGUUUAACACAGCGUGGUAAAGUGGCUGUGGCCAGACUGCC,0.02
12,CGCUGAGCUCAACAAAGCGUGGCAAAGUGGCUGUGGCUAGACUACC,0.03
13,CGCUGAGCUCAACACAGCCUGGCAAAGUGGCUGUGGCUAGACUGCC,0.04
14,CGCUGAGCUCAACACAGCGUGGCAAAGUAGCUGUGGCUUGACUGCC,0.01
15,CGCUGAGCUCAACACAGCGUGGCAAAGUAGCUGAGGCUAGCCUGCC,0.03
16,CGCUGAGCUCAACACAGCGUGGCAAAGUUGCUGUUGCUAGACUGCC,0.04
17,CGCUGAGCUCAACACAGCGUGGCAAAGUGUCUGUGGCUAUACUGCC,0.02
18,CGCAGCGCUCCGCACAGCGUGGAAAAGUGGCUGUGGCUAGUCUGCC,0.01
19,CGCAGCGCUAAACACAGCGUGGCAAGGUGGCUGUGUCUAGACUGCC,0.02
20,CGCAGCGCUGAACACAGCGUGGCAAAGGGGCUGUUGCUAGACUGCC,0.01
21,CGCAGCGCUCAACAAAGCGUUGCAAAGUGGUUGUGGCUAGACUGCC,0.01
22,CGCAGCGCUCAACACAGCGUGGCAAAGUGGAUGUGGCUAGACUGCU,0.01
23,CGCAGCGCUCAACACAGCGUGGCAAAGUGGCUGUGGCUAGACUGCA,0.16

row,Variant,self-cleavage
1,CGCAGCGCUCAACACAACGUGGCAAAGUGGCUUUGGCUAGACUGCC,0.02
2,CGCAGCGCUCAACACAGCAUGGCAAAAUGGCUGUGGAUAGACUGCG,0.01
3,CGCAGCGCUCAACACAGCGUAGCAAAGUGGCUGUGGCUAGACUGCC,0.17
4,CGCAGGGCUCAACACAGCGUGGCAUAGUGGCUGUGGCUAGACUUCC,0.02
5,CGCAGGGGUCAACAGUGCGUGGCACAGUGGCUGUGGCUAGACUGCC,0
6,CGCAGGGUUCAACACAGCGUGGCAAAAUGGCUGUGGCUAUACUGCC,0.01
7,CGCAGGGCUCAACAAAACGUGGCAGAGUGGCUAUGGCUAGACUGCC,0.01
8,CGCAGGGCUCAACACAGCGUGGCAAAGUGGUUUUGGUUAGACUGCC,0.01
9,CGCAGGGCUCAACACAGCGUGGCAAAGUGGCUGUGGCUAGACUGCU,0.08
10,CGCAGGGCUCAACACAACGUGGCAAAGUGGCUGUCGCUAGACAGCU,0.02
11,CGCAGUGCUCUGCACAGCGUGGCAAAGUGGCUCUGGCUAGACUGCC,0
12,CGCAGUGCUCAGCACAGCGUGGCAAAGUGGCUGUGGCUAGACUGCC,0
13,CGCAGUGCUAGACACAGCGUGGCAAAGUGGCUGUGGCUAGACUGCC,0.02
14,CGCAGUGCUCAAAACAGCGUGGCAAAGUGGCUGUGGCUAGACUGCC,0
15,CGCAGUGCUCAACAUGGCGUGGCAAAGUGGCUGUGGCUAGACUGCC,0.04
16,CGCAGUGCUCAACACAGCUUGGCAAAGUGGCUGUGGCUAGCCUGCC,0.05
17,CGCAGUGCUCAACACAGCGUGGCAAAGUAGCUGUGGUUAGACUGCC,0
18,CGCAGUGCGCAACACAGCGUGGCAAAGUGUCUGUGGCUAGACUGCC,0.06
19,CGCAGAGCUCCACACGGCGUGGCAAAGUGGCUGUGGCUAGACUGCU,0.02
20,CGCAGAGCUCCACACUGCGUGGCAAACCGGCUGUGGCUAGACUGCC,0.01
21,CGCAGAGCUCCACACAGCGUGGCAAAGUGGCUGUGGGUAGACUGCC,0.01
22,CGCAGAGCUCGACACAGCGUGCCAAAGUGGCUGUGGCUACACUGCC,0
23,CGCAGAGCUCGACACAGCGUGGCAAAGUGGCUGUGGCCAGAUUGAC,0.02

row,Variant,self-cleavage
1,CGCAGAGCUCUACACAGCGUGGCGAAGUGGCUGUGGCUAGGCUGCC,0.01
2,CGCAGAGCUCUACACAGCGUGGCGAAGUGGCUGUGGCUAGACCGCC,0
3,CGCAGAGCUCUACAAAACGUGGCAAAGUGGCUGUGGCUAGACUGCC,0
4,CGCAGAGCUCUACACAACGUGGCAAAGUGGCUGUGGCUAGACUGCC,0
5,CGCAGAGCUCUACACAGCGUGGCAAAGUGUCUGUGGCUAGACUGCC,0.01
6,CGCAGAGCUCACCACAGCGUGGAAAAAUGGCUGUGGCUAGACUGCC,0.01
7,CGCAGAGCUCACCACAGCGUUGCAAGGUGGCUCAGGGUAGACGGCC,0
8,CGCAGAGCUCACCACAGCGUGGCAAAGUAGCUGUGGCUAGACUGCC,0.01
9,CGCAGAGCUCACCACAGCGUGGCAAAGUAGCUGAGGCAAGACUGCG,0
10,CGCAGAGCUCACCACAGCGUGGCAAAGUUGCUGUGGCUCGUCUGCC,0
11,CGCAGAGCUCACCACAGCGUGGCAAAGUGGCUCUGGCUAGACUGUC,0
12,CGCAGAGCUCAGGACAGCGUGGCAAAGUUGCUGUGGCUAGACUGCC,0.01
13,CGCAGAGCUCAGCACAGCGUGGCAAAGUGGUUGUCUCUAGAAUGCC,0
14,CGCAGAGCUCAGCACAUGGUGGCAAAGCGGCUGUGGCUAGACUGCC,0
15,CGCAGAGCUCAGCACAGCGUGGCAAAGUGCCUGUGGCUAGACUGCC,0.01
16,CGCAGAGCUCAGCACAGCGUGGCAAAGUGGCUGUGGCUAUACUGCC,0
17,CGCAGAGCUCAUCACAGAGUGGCAAAGUGGCUGUGGCUAGACUGCC,0.03
18,CGCAGAGCUCAUCACAGCGUGGAAAAGUGGCUGUGGCUAGACUGCC,0.06
19,CGCAGAGCUCAUCACAACGUGCCAAAGUGGCUGUGGCUAGACUGCC,0.01
20,CGCAGAGCUCAUCACAACGUGGCAAAGUGGCUGUCGCUAGACUGCC,0.02
21,CGCAGAGCUCAUCACAACGAGGCAAAGUGUCUUUGGCUAGACUGCC,0
22,CGCAGAGCUCAUCACAGCCUGGCAAAGUGGCUGUGGCUAGACUGCC,0.04
23,CGCAGAGCUCAUCACAGCGUGGCAAAGUGGCUGUGGCAAGACUGCC,0

row,Variant,self-cleavage
1,CGCAGAGCUCAACCCAGCGUGGCACAGUGGCUGUGGCUAGACUGCC,0.04
2,CGCAGAGCUCAACCCAGGCUGGCAAAGUGGCGGUGCCUAGACUGCC,0.01
3,CGCAGAGCUCAACCCAGCGUGGCAAAGUCGCUGUGGCUAAACUGCC,0.01
4,CGCAGAGCUCAACCCAGCGUGGCAAAGUGGCUGUGCCUAGACUGCC,0
5,CGCAGAGCUCAACCCAGCGUGGCAAAGUGGCAGUGGCUAGACUGCC,0.01
6,CGCAGAGCUCAACUCAGCGUGGCAAAGUGGCUGUGGCUAGACUGAC,0.01
7,CGCAGAGCUCAACUCAGCGUGGCAAAGUGUCUUUGUCUAGACCGCC,0.04
8,CGCAGAGCUCAACUCAGCGUGGCAAAGUGGCUGUCGCUAGACUGCU,0.02
9,CGCAGAGCUCAACUCAGCGUGGCAAAGUGGCUGUGGCUAAACUGCG,0.03
10,CGCAGAGCUCAACUCAGCGUGGCAAAGUGGCUGUGGCCAGACUGCC,0.01
11,CGCAGAGCUCAACACCGCGUUGCAAAGUGGCUGUGGCUAGACUGCC,0.02
12,CGCAGAGCUCAACACCGCGUGGCAAAGUGGCUGUGACUAGACUGCC,0.01
13,CGCAGAGCUCAACACCGCGAGGCAAAGUGGCUGUGGCUAGACUGCC,0.01
14,CGCAGAGCUCAACACGGCGUGGGAAAGUGGCUGUGGCUAGACUGCC,0
15,CGCAGAGCUCAACACGGCGUGGGAAAGUGGCUGUGGCUGGAAUGCC,0.01
16,CGCAGAGCUCAACACGGCAUGGCAAAGUGGCUGUGCCUAGACUGCC,0
17,CGCAGAGCUCAACACGGCGUGCCAAAGCGGCUGUGGCUAGACUGCC,0
18,CGCAGAGCUCAACACGGCGUGUCAAAGUGUCUGUGGCUAGACUGCA,0
19,CGCAGAGCUCAACACGGCGUGGCAAAGCGGCUGUGGCUAGACUGCC,0.02
20,CGCAGAGCUCAACACUCCGUGGCAUAGUCGCUAUGGAUAGACUUCG,0

# — the RNAGym collection of RNA variant scans (doi:10.7554/elife.90254)
